# Results: PubChem BioAssay AID624202 (National Center for Advancing Translational Sciences (NCATS), 2012)
# The campaign covered roughly 380,000 compounds. About 4,000 (1.1%) were called active. Inconclusive results, whose numbers are uncertain, are shown with a selection of clear calls. Calls follow the shape of the dose curve; as a rule, active = well fitted activation curve with a large enough effect; inconclusive = small, poorly fitted or top-dose-only effect; inactive = no such curve, though single readings can be large or run the other way. Where the call is inconclusive, the potency comes from a doubtful curve fit.
# Experiment: qHTS Assay to Identify Small Molecule Activators of BRCA1 Expression; also: nearly all actives have a fitted effect of over 80% in size
# Conditions: MCF7-BRCA1-FFLuc reporter, luminescence, 48 h; activation: at 46.1 µM (top of the series), scaled: vehicle 0%, 10 µM genistein 100% unless noted
# Outline: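 Activators of BRCA1 expression were detected as increased firefly luciferase luminescence in engineered MCF7 cells after 48 h compound incubation. Signals were scaled to genistein 10 microM as full activation.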
# Potency is read from the fitted curve at half-maximal effect; tags tell the direction and shape of the fitted curve.
SMILES,Potency,activation
O=C(Nc1ccc(-c2cnco2)cc1)c1ccc(F)cc1F,active: 5.01 µM,
CCOc1ccc(-c2nnc(-c3ccccc3)o2)cc1,"inconclusive: 0.631 µM [activator, full curve, poor fit]",
Cn1cc(Br)c(C(=O)N/N=C/c2cc3ccccc3nc2Cl)n1,"inconclusive: 17.8 µM [activator, partial curve, poor fit]",
C/C(=N\NC(=S)NCc1ccccc1)c1cccc(Br)c1,inactive,
Cc1ccc2nc(NC(=O)C3CCCN(S(=O)(=O)c4cnc[nH]4)C3)sc2c1 (stereo not drawn),"inconclusive: 8.91 µM [activator, partial curve, poor fit]",
O=C(CCCc1ccccn1)c1ccc(-c2ccccc2)cc1,"inconclusive: 2.24 µM [activator, partial curve, poor fit]",
CCOC(=O)C1(C)CCCN(C(=O)c2cc(C)on2)C1 (stereo not drawn),inactive,
N#C/C(=N\Nc1ccc(Cl)cc1)C(=N)N1CCCCCC1,"inconclusive: 1.26 µM [activator, full curve, poor fit]",
O=C(Nc1cccc([N+](=O)[O-])c1)NC1CCCCCCC1,active: 6.31 µM,
O=C(Nc1ccccn1)c1ccc(Cl)s1,"inconclusive: 2 µM [activator, full curve, poor fit]",
CN(C)S(=O)(=O)c1cccc(NC(=O)COC(=O)c2cc(-c3cccc(Br)c3)nc3ccccc23)c1,inactive,
CC(=O)c1ccc(OCc2cc(C(=O)N3CCOCC3)no2)cc1,"inconclusive: 11.2 µM [activator, partial curve, poor fit]",
COc1cccc2sc3ccc(C#Cc4ccc(N)cc4)cc3c(=O)c12,"inconclusive: 6.31 µM [activator, partial curve, poor fit]",
O=c1[nH]c(N/N=C\c2ccc3c(c2)OCO3)nc2ccccc12,"inconclusive: 0.631 µM [activator, full curve, poor fit]",
O=C(CNC(=O)c1ccc(Br)o1)NC1CCCCCC1,inactive,
COc1ccc2cc3cc(C(=O)NCCCN4CCC(C)CC4)oc3nc2c1,active: 11.2 µM,
Cc1ccc2c(c1)cc1c(=O)[nH]ncn12,active: 11.2 µM,
Cc1nn(-c2ccccc2)c(/N=C/c2ccccc2O)c1-c1ccccc1,active: 12.6 µM,
COc1cc(C)ccc1OCC(=O)NC1CCCCCC1,"inconclusive: 7.08 µM [activator, partial curve, poor fit]",
CN(C(=O)c1cc2c(=O)n3ccccc3nc2s1)C1CCCCC1,"inconclusive: 1.58 µM [activator, partial curve, poor fit]",
COc1ccc2cc3cc(C(=O)N(C)C4CCCCC4)oc3nc2c1,"inconclusive: 0.631 µM [activator, full curve, poor fit]",
CCOc1ccc(C(=O)Cc2cc3cccc(OC)c3oc2=O)cc1,inactive,
CC1CCN(c2ccc(-c3ccc(NC(=O)C(F)(F)F)cc3)nn2)CC1,,inconclusive: -44.3% [activator]
CCCn1cnc2c(sc3nc4c(cc32)CSC(C)(C)C4)c1=O,"inconclusive: 2.82 µM [activator, full curve, poor fit]",

SMILES,Potency,activation
CCOc1ccc(-c2ccc(SC)nn2)cc1,,inconclusive: -60.3% [activator]
CC(=O)Nc1ccc(/C=C2\CCc3ccccc3C2=O)cc1,"inconclusive: 2.51 µM [activator, partial curve, poor fit]",
COc1cccc2c1C(CO)N1C(C#N)C3CC(C(=O)O)C(C1C2)N3C (stereo not drawn),,inconclusive: -80.7% [activator]
O=C(Nc1ccccc1)Nc1nnc([C@@H]2C[C@H](O)[C@@H](CO)O2)s1,"inconclusive: 12.6 µM [activator, partial curve, poor fit]",
CC(C)c1ccc(NC(=S)N2CCCC2)cc1,"inconclusive: 0.562 µM [activator, full curve, poor fit]",
Cc1ccc2c(CN(C)Cc3ccccc3)cc(=O)oc2c1C,"inconclusive: 10 µM [activator, partial curve, poor fit]",
Cc1ccc(N(C(=O)Cc2c[nH]c3ccccc23)C(C(=O)NC2CCCCC2)c2ccco2)cc1 (stereo not drawn),inactive,
FC(F)(F)c1cnc(-c2cnc(-c3cccnc3)nc2)c(Cl)c1,"inconclusive: 2 µM [activator, partial curve, poor fit]",
CCCCCn1cnnc1SCC(=O)c1c(N)n(C2CC2)c(=O)[nH]c1=O,inactive,
Cc1ccc2nc(-c3cccc(S(=O)(=O)N(C)C)c3)cn2c1,"inconclusive: 10 µM [activator, partial curve, poor fit]",
COc1cccc(/C=N/NC(=O)CN(CCc2ccccc2)S(=O)(=O)c2ccc(NC(C)=O)cc2)c1,inactive,
COC(=S)N/C(=N\S(=O)(=O)c1ccc(Cl)cc1)c1ccccc1,inactive,
COc1cc(OC)cc(C(=O)Nc2ccc3nc4n(c(=O)c3c2)CCCCC4)c1,active: 4.47 µM,
Fc1cccc(/C=N/Nc2nc3ccccc3[nH]2)c1,active: 4.47 µM,
CC(O)(c1ccccc1)c1nc(-c2cccc(C(=O)O)c2)cs1 (stereo not drawn),active: 10 µM,
O=[N+]([O-])c1ccc(NS(=O)(=O)c2ccc(Cl)c(Cl)c2)cc1,inactive,
O=C(Cc1cccs1)Nc1ccc(-c2nc3ccccc3[nH]2)cc1,active: 5.62 µM,
CN(C)CCN(C(=O)c1ccc(C(=O)c2ccccc2)cc1)c1nc2cc3c(cc2s1)OCCO3,"inconclusive: 15.8 µM [activator, partial curve, poor fit]",
CCOc1ccc(/C=N/NC(=O)Nc2ccccc2)cc1,"inconclusive: 35.5 µM [activator, single point]",
O=C(/C=C/c1ccccc1)c1ccccn1,inactive,
COc1ccsc1NC(=O)OCc1ccc(Cl)cc1,active: 12.6 µM,
CC1(Oc2ccc(Cl)cc2)CCN(Cc2cccn2-c2nccs2)C1 (stereo not drawn),inactive,
CC(=O)c1cccc(NC(=O)Nc2ccc3c(c2)CCC3)c1,active: 7.08 µM,
Cc1cc(N2CCOCC2)ccc1/C=C1/SC(=O)NC1=O,"inconclusive: 1.78 µM [activator, full curve, poor fit]",
